In all, about 16,000 compounds went through this assay and about 120 (0.75%) were called active. Roughly 4% stayed inconclusive and do not appear here. The call rests on the fitted dose curve; in most records, active means well fitted inhibition curve with a large enough effect; inconclusive means small, poorly fitted or top-dose-only effect; inactive means no such curve, though single readings can be large or run the other way. Some of the results follow.
Molecular target: Rap guanine nucleotide exchange factor 3 (Homo sapiens) (UniProt O95398)
Sequence of UniProt O95398 (O95398 whole entry, looked up): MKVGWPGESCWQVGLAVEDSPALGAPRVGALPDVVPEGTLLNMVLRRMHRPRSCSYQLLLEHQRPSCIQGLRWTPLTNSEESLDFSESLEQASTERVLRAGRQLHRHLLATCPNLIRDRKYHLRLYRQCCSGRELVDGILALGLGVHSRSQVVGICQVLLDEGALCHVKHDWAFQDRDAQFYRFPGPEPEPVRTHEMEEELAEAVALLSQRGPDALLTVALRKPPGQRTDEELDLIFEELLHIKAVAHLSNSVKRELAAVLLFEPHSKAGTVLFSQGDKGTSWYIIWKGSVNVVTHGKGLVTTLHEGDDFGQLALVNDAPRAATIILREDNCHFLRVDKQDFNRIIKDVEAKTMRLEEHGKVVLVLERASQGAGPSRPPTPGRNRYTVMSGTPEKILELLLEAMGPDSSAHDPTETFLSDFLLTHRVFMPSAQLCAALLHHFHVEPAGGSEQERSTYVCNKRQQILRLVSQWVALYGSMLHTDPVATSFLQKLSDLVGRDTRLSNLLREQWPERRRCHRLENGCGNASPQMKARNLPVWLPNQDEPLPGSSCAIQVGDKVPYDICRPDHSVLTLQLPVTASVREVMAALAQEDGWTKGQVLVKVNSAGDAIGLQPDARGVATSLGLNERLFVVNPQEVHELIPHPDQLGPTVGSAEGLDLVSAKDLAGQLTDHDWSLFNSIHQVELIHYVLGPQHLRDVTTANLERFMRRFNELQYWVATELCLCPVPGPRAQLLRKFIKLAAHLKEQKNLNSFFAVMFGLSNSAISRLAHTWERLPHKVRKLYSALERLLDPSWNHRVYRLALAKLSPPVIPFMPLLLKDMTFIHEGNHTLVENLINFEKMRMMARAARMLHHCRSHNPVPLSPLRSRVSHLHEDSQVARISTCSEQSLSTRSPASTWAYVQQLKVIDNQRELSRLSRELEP
Assay: Validation qHTS for antagonist of cAMP-regulated guanine nucleotide exchange factor 3 (EPAC1);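 further: plate controls were DMSO for no effect and ATA control for full effect; nearly all actives have a fitted effect of over 75% in size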
Settings: EPAC1 Rap1B-BODIPY-GDP exchange, fluorescence; series mostly up to 150 µM; activity change, negative = inhibition: at the top concentration
Method in brief: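 Nucleotide exchange followed as fluorescence loss when BODIPY-GDP leaves Rap1B (480 nm excitation, 540 nm emission), read at 5 min intervals over 30 min. Reaction: 100 nM EPAC1, 250 nM RAP1B-BODIPY-GDP, 50 uM GDP; ATA and DMSO define normalization.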

Activity change, negative = inhibition, inactive:
CS(=O)(=O)N1CCC[C@@]2(CCN(Cc3ccccc3)C2)C1 5.44%
C1CCN2CC3CC(CN4CCCC[C@@H]34)C2C1 (stereo not given in full) -11.7%
O=C(c1cnccn1)N1CCC[C@@]2(CCN(C(c3ccccc3)c3ccccc3)C2)C1 -7.92%
N#Cc1cccc(NC(=O)N2CC[C@@]3(CCCN(C(=O)c4cccc(F)c4)C3)C2)c1 -9.14%
NC(=Nc1ccccc1)Nc1ccccc1
CCCN(CC1CC1)c1nc(C)nc(Nc2c(Cl)cc(Cl)cc2Cl)c1Cl
O=C(NCCc1nnc2n1CCN(Cc1ccc(F)c(F)c1)CC2)c1ccoc1 16.5%
Nc1nc(Cl)c2ncn(C3OC(CO)C(O)C3O)c2n1 (stereo not given) 8.74%
COc1ccccc1-c1ccnc(-n2ncc(C(=O)NCCCN3CCOCC3)c2C)n1 18.4%
O=S(=O)(c1ccccc1)N1CCC2(CCN(c3ccncc3)CC2)CC1 18.4%
CCN1CCN(C(=O)c2cc(NC(=O)COC)cc3nc(-c4ccncc4)n(C)c23)CC1 -7.46%
O=C1OC(C(O)CO)C(O)=C1O (stereo not given) 8.97%
CCN(CC)C1CCN(C(=O)c2cnn(-c3nccc(-c4ccco4)n3)c2C(C)C)C1 (stereo not given) 14.3%
COc1ccccc1-c1nccc(-n2ccnc2)n1 27.9%
CN(Cc1cc(Br)cc(Br)c1N)C1CCCCC1 19.4%
Cn1nccc1C(=O)NCC1CCC2(CCN(Cc3cccc4ncccc34)CC2)O1 (stereo not given) 14.3%
CC1(C)O[C@@H]2C[C@H]3[C@@H]4C[C@H](F)C5=CC(=O)C=C[C@]5(C)[C@H]4[C@@H](O)C[C@]3(C)[C@]2(C(=O)CO)O1 4.52% [at 75.8 µM]
COC(=O)[C@@H]1C[C@@H](NC(=O)c2cccc3c(C)c(C)[nH]c23)CN1Cc1cccc2ccccc12 16.7%
C[C@@H]1CC[C@H]2[C@H](C)[C@H]3CC[C@H]4C5[C@@H](O)CC6=CC(=O)CC[C@]6(C)[C@H]5C[C@H]4C3C(=O)N2C1 (stereo not given in full) 33.8%
CCOC(=O)C[C@H]1c2cc(F)ccc2S(=O)(=O)N1C1CCCCC1 -12.8%
Cn1cnc2c(F)c(Nc3ccc(Br)cc3Cl)c(C(=O)NOCCO)cc21 30.4%
CC(C)Oc1ccc(C(=O)NCC2Cc3cc(F)cc(-c4cnccn4)c3O2)cc1 (stereo not given) 0.767%
O=C(Nc1cccc(F)c1)N1CC2(CCN(C(=O)c3cccc(F)c3)CC2)C1 0.871%
COCCn1c(=O)c(-c2cn(C)c3ccccc23)nc2cncnc21 15.3%
CC(=O)OC1CC2C(C)(C)C(=O)CC[C@]2(C)C2CC[C@@]3(C)C(c4ccoc4)OC(=O)C4OC43[C@]12C (stereo not given in full) -21.3%
C=C1C2CC[C@@]3(C)C(c4ccoc4)OC(=O)C[C@@]13OC1CC(O)C(C)(C)C(CC(=O)OC)[C@@]12C (stereo not given in full) -1.21%
CCCCCCCCCCCCCCCC(=O)N[C@H](CN1CCOCC1)[C@H](O)c1ccccc1 22.5% [at 15.3 µM]
COc1ccccc1CNc1ncncc1-c1cccc(C#N)c1 17.6%
Cc1ccnc2ccc(I)cc12 16.8%
NC(=O)c1ccccc1 -0.597% [at 75.8 µM]
COc1ccccc1C1CN(Cc2cccnc2)Cc2ccccc2O1 (stereo not given) 12.2%
O=C(c1csnn1)N1CCC2(CCCN(Cc3cc(C(F)(F)F)cc(C(F)(F)F)c3)C2)CC1 -13.8%
O=c1cnc2cnc(N3CCOCC3)nc2n1CCc1ccccc1 -0.293%
CC(=O)NCCNc1ncnc2ccc(-c3c(C)noc3C)cc12 7.88%
NC(N)=NC(N)=Nc1ccccc1
O=C(Nc1ccccc1)N1CCCC2(CCN(C(=O)c3cnccn3)CC2)C1 15.6%
CCCCCC=CCC=CCCCCCCCC(=O)OCC 15%
c1ccc(CNc2ncncc2-c2ccoc2)cc1 14.6%
CCn1c(-c2ccccc2F)nc2cc(C(=O)NC(c3ccccn3)C(F)(F)F)cc(NC(C)=O)c21 (stereo not given) 19.5%
NCCc1ccc(O)c(O)c1
CC(=O)N1CCC[C@@]2(CCN(C(=O)Nc3cccc(C#N)c3)C2)C1 17.2%
COc1ccccc1-c1nc(N2CCOCC2)c2ccccc2n1 8.2%
OC[C@H]1OC([S-])[C@H](O)[C@@H](O)[C@@H]1O.[Au+] (stereo not given in full) -17.7%
COc1ccc2c(=O)cc(-c3ccc(O)cc3)oc2c1 18.6%
O=C(c1cccc(Cl)c1)N1CCCC(Cn2cc(C(=O)N3CCCC3)nn2)C1 (stereo not given) 6.26%
C[C@H](Cc1ccc(O)c(O)c1)[C@@H](C)Cc1ccc(O)c(O)c1
CCC1CN(Cc2c(C)nc3sccn23)Cc2cc(OC)ccc2O1 (stereo not given) 20.8%
CCN1CCCC1CNC(=O)c1cc(S(=O)(=O)CC)ccc1OC (stereo not given)
C[C@H](O)[C@H](O)[C@H]1CNc2nc(N)[nH]c(=O)c2N1 27.6%
CC1CC[C@@]23CCC4(C)[C@@]5(C)CCC6C(C)(C)C(O)CC[C@@]6(C)C5C=C[C@@]4(OC2=O)C3C1C (stereo not given in full) 4.77%
Cc1c(C(=O)N2CCCC(c3ccccc3)C2)sc2ncnc(NCCc3ccccn3)c12 (stereo not given) 4.72%
COc1cc(=O)n2c(c1C(=O)NC(C)c1ccco1)CCN(C(=O)c1ccc(F)cc1Cl)CC2 (stereo not given) 10.1%
CCN(CCO)C(=O)c1cnn(-c2ncc3c(n2)-c2ccccc2CCC3)c1C1CC1 -7.5%
CN(Cc1ccccc1)c1ccc(C=O)cc1 16.7%
COC(=O)[C@@H]1CCCN1C(=O)c1c(OC)cc(=O)n2c1CCN(Cc1cc(OC)ccc1F)CC2 10.3%
CC(C)(C)N1[C@@H](CC(=O)O)c2cc(C(F)(F)F)ccc2S1(=O)=O -5.04%
Cn1c(=O)c(-c2cc(F)cc(F)c2)nc2cnc(N3CCOCC3)nc21 0.301%
N#Cc1ccc(CN2CCC3(CC2)CCN(C(=O)c2ccncc2)CC3)cc1 22.8%
C[C@H]1[C@H]2CC[C@H]3[C@@H]4CC=C5C[C@@H](N(C)C)CC[C@]5(C)[C@H]4CC[C@]23CN1C 16.3%
C=C[C@@H]1c2c(F)cccc2N(S(=O)(=O)c2ccc(C)cc2)[C@H](c2ccc(C(=O)OC)cc2)C1(C#N)C#N -12.1%
O=C1CCN(CCc2ccccc2)CCN1[C@H](CO)Cc1ccccc1 -2.84%
O=C1O[C@H]2[C@H](O)[C@@H]1OC(O)[C@H]2O (stereo not given in full) 35.4%
CC(C)C(=O)c1c(C(C)C)nn2ccccc12
COP(=O)(OC)OC(c1ccc(Cl)cc1)P(=O)(OC)OC (stereo not given) 8.87%
COc1ccc(CN2CCC(n3cc(C(=O)N4CCCCC4)nn3)CC2)c(OC)c1 -4.06%

Source: PubChem BioAssay AID1645882 (National Center for Advancing Translational Sciences (NCATS), 2021)
